Measurements taken from PubChem BioAssay AID1768 (National Center for Advancing Translational Sciences (NCATS), 2009).
Screen size: about 270,000 compounds; about 620 (0.23%) were called active. Inconclusive results, whose numbers are uncertain, are shown with a selection of clear calls. The call rests on the fitted dose curve; in most records, active means well fitted inhibition curve with a large enough effect in the polarisation, with a control signal flat (not every such curve was filed as active); inconclusive means small, poorly fitted or top-dose-only effect, or effect the other way, or a change in a side signal; inactive means no such curve, though single readings can be large or run the other way; the % refers to the polarisation. Potencies of inconclusive entries are doubtful fits and often do not repeat. “Side channel” marks fits to a control or component signal instead of the main read-out.

Target: Menin (Homo sapiens) (UniProt O00255)
Assay: qHTS Assay for Inhibitors Targeting the Menin-MLL Interaction in MLL Related Leukemias: Competition With Texas Red Labeled MLL-derived Mutant Peptide; on FP activity change, negative = inhibition: % of control where 0% means no effect
Conditions: fluorescence polarization; FP activity change, negative = inhibition: at 61.6 µM (top of the series)
Potency means the concentration at half of the fitted maximal effect; tags describe the fitted curve by direction and shape or compound fluorescence and quenching.

Sequence of UniProt O00255 (O00255 whole entry, looked up): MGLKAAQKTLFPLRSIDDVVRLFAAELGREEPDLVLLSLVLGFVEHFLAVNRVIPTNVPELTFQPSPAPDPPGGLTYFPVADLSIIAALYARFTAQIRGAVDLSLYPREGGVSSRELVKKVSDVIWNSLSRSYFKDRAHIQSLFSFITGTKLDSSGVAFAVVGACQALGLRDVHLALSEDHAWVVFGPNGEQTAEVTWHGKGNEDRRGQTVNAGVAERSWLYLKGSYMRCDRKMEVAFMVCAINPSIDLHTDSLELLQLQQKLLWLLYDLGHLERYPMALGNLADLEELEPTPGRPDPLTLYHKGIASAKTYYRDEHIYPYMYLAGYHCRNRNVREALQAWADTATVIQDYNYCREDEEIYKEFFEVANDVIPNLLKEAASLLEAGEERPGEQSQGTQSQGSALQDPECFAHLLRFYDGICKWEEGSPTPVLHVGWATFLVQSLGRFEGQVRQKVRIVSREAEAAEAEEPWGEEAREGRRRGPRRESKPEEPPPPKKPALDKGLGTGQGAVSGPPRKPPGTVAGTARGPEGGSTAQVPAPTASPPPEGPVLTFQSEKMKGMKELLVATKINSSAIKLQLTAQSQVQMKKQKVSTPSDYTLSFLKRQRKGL

Structure (SMILES) | Potency | FP activity change, negative = inhibition
Brc1ccc(-c2csc(Nc3nc(-c4ccc(Br)cc4)cs3)n2)cc1 | inconclusive: 1.78 µM [quencher, side channel, full curve] | 
Nc1ccc2nc(-c3cc(Cl)c(N)c(Cl)c3)[nH]c2c1 | inconclusive: 17.8 µM [quencher, side channel, partial curve] | 
CCCCNC(=O)c1onc(CSc2ccc(C(C)C)cc2)c1C(=O)O | inconclusive: 15.8 µM [quencher, side channel, partial curve] | 
O=C1c2ccccc2NC(c2cccc([N+](=O)[O-])c2)N1CCc1ccccc1 (stereo unspecified) | inconclusive: 20 µM [quencher, side channel, single point] | 
Cc1cccc(N(C(=O)c2snc(C(N)=O)c2N)C(C(=O)NC2CCCC2)c2ccc(C)o2)c1 (stereo unspecified) |  | inactive: 12.7%
O=C(CN1CCCC1)N/N=C/c1c(O)ccc2ccccc12 | inconclusive: 25.1 µM [quencher, side channel, single point] | 
CC(C)C(=O)SCCCCCCC(=O)Nc1nc(-c2ccccc2)cs1 |  | inactive: 9.62%
C=CCn1c(C)cc(C(=O)Cn2nc(C(=O)O)c3ccccc3c2=O)c1C | inconclusive: 10 µM [fluorescent, side channel, partial curve] | 
CC1CC=CC2C1C(=O)N(Cc1ccccc1)C2c1ccc(/C=C/c2ccccc2)cc1F (stereo unspecified) |  | inactive: -3.93%
O=C(Nc1nnc(CSCc2ccc(F)cc2)s1)c1cccc([N+](=O)[O-])c1 | inconclusive: 31.6 µM [quencher, side channel, single point] | 
Cc1nc2sc(C(c3ccc(Cl)cc3)N3CCN(c4ccccc4F)CC3)c(O)n2n1 (stereo unspecified) | inconclusive: 5.62 µM [fluorescent, side channel, full curve, poor fit] | 
O=C(CNc1ccc(F)cc1)N/N=C/c1c(O)ccc2ccccc12 | inconclusive: 25.1 µM [quencher, side channel, partial curve] | 
O=c1oc2c(-c3cccc(F)c3)cc(O)cc2s1 | inconclusive: 15.8 µM [quencher, side channel, partial curve, poor fit] | 
O=c1oc2ccccc2cc1-c1cn2cccnc2n1 | inconclusive: 35.5 µM [inhibitor, partial curve] | 
Cc1ccccc1OCCCn1c(CO)nc2ccccc21 | inconclusive: 17.8 µM [fluorescent, side channel, single point] | 
CCN(CC)C(=O)CSc1nc2cc3c(cc2c(=O)n1CCCCCC(=O)NCc1ccc(OC)cc1)OCO3 | inconclusive: 2.82 µM [fluorescent, side channel, full curve] | 
C=CCn1c(C)cc(C)c(C#N)c1=O | inconclusive: 3.98 µM [inhibitor, full curve] | 
N#CCCn1cc(/C=C2\NC(=S)N(c3ccccc3)C2=O)c(-c2ccc(F)cc2)n1 | inconclusive: 3.98 µM [quencher, side channel, partial curve] | 
CCOc1cccc(CN2CCCC(N3CCN(c4cccc(Cl)c4)CC3)C2)c1O (stereo unspecified) | inconclusive: 12.6 µM [fluorescent, side channel, partial curve] | 

Structure (SMILES) | Potency | FP activity change, negative = inhibition
COCCNc1nc(-c2cc(C)n(CCc3ccc(OC)cc3)c2C)cs1 | inconclusive: 15.8 µM [inhibitor, partial curve] | 
CCN(CC)CCCNC(=S)N(Cc1ccco1)Cc1cc2cc3c(cc2[nH]c1=O)OCCO3 | inconclusive: 39.8 µM [inhibitor, single point] | 
C/C(CCN1CCCCc2nc(C)c(C)cc21)=N\OC[C@@H](O)[C@H]1O[C@@H]2OC(C)(C)O[C@@H]2[C@H]1O | inconclusive: 0.631 µM [fluorescent, side channel, partial curve, poor fit] | 
COc1ccccc1Oc1nc2c(c(=O)n(Cc3ccccc3F)c(=O)n2C)n1C | inconclusive: 39.8 µM [quencher, side channel, single point] | 
C/C(=N\Nc1ccc(Cl)c(C(=O)O)c1)c1cc2ccccc2o1 | inconclusive: 28.2 µM [quencher, side channel, partial curve] | 
COc1ccc(OC)c(C(c2nnnn2Cc2ccccc2)N2CCN(C3CCCCC3)CC2)c1 (stereo unspecified) | inconclusive: 14.1 µM [inhibitor, partial curve] | 
COc1ccc(Nc2c3c(nc4ccccc24)CCC3)cc1 | inconclusive: 39.8 µM [inhibitor, single point] | 
CCCCCCCC(=O)Nc1ccc(C(=O)N/N=C/c2cccc([N+](=O)[O-])c2)cc1 | inconclusive: 3.55 µM [quencher, side channel, partial curve] | 
Cc1nn(-c2ccccc2)c(Cl)c1/C=N/NS(=O)(=O)c1ccc(Br)cc1 | inconclusive: 28.2 µM [quencher, side channel, single point] | 
COc1cccc(OCc2nn3c(=O)c(-c4ccccc4)nnc3s2)c1 | inconclusive: 39.8 µM [inhibitor, single point] | 
Cc1cccn2c(=O)c3cc(C(=O)NCC4CCCO4)c(=N)n(C4CCCCC4)c3nc12 (stereo unspecified) |  | inactive: -20.3%
COc1cc(/C=N/NC(=O)Cc2cccs2)c([N+](=O)[O-])cc1OC | inconclusive: 39.8 µM [quencher, side channel, single point] | 
OC(CN1CCN(C(c2ccccc2)c2ccccc2)CC1)c1ccc(Br)cc1 (stereo unspecified) | inconclusive: 5.01 µM [inhibitor, partial curve] | 
O=C(CSc1ccc2ccccc2n1)N/N=C/c1ccccc1O | inconclusive: 35.5 µM [quencher, side channel, single point] | 
C=CCCC(=O)Nc1nc(C)c(-c2csc(Nc3cc(OC)ccc3OC)n2)s1 | inconclusive: 7.08 µM [quencher, side channel, partial curve] | 
CC(=O)NNc1nc(-c2ccccc2)cs1 | inconclusive: 31.6 µM [quencher, side channel, single point] | 
C=CCN(Cc1cc(OC)ccc1OC)C(=O)c1cc2ccc(OC)cc2[nH]1 | inconclusive: 25.1 µM [fluorescent, side channel, partial curve] | 
Cc1ccc(NC(CNS(=O)(=O)c2ccc(Cl)cc2)c2ccccc2)cc1 (stereo unspecified) | inconclusive: 14.1 µM [quencher, side channel, partial curve] | 
O=c1[nH]c2ccccc2nc1/C=C/c1ccc(O)cc1 | inconclusive: 14.1 µM [quencher, side channel, partial curve] | 

Structure (SMILES) | Potency | FP activity change, negative = inhibition
N#Cc1c(NC(=O)CSc2ncnc3sccc23)oc(-c2ccco2)c1-c1ccco1 | inconclusive: 14.1 µM [quencher, side channel, partial curve] | 
CCCCCCC(=O)Nc1nc(C)c(-c2csc(Nc3cc(OC)ccc3OC)n2)s1 | inconclusive: 12.6 µM [quencher, side channel, partial curve] | 
O=C(O)c1ccc(-c2nc(-c3cccc(C(F)(F)F)c3)cs2)cc1 | inconclusive: 3.98 µM [inhibitor, full curve] | 
Nc1ncnc2c1ncn2C1OC(CO)C(O)C1O (stereo unspecified) | inconclusive: 11.2 µM [inhibitor, partial curve] | 
Cc1ccc(/C=C/C(=O)Nc2ccc([N+](=O)[O-])cc2)o1 | inconclusive: 3.16 µM [quencher, side channel, partial curve] | 
COc1ccc(-c2csc(C3=C(O)CN(Cc4ccc(Cl)cc4)C3=N)n2)cc1OC | inconclusive: 14.1 µM [quencher, side channel, partial curve] | 
COc1cc(C(=O)Nc2nc3ccccc3s2)ccc1OCc1c(C)noc1C | inconclusive: 8.91 µM [quencher, side channel, full curve] | 
Nc1cc(N)c(OCC(F)(F)F)cc1OCC(F)(F)F | inconclusive: 35.5 µM [quencher, side channel, single point] | 
CCOc1cc(/C=C2/COc3ccccc3C2=O)ccc1OCC(=O)N(C)C | inconclusive: 22.4 µM [fluorescent, side channel, partial curve] | 
Cc1ccc(CNC(=O)c2ccc(Br)o2)cc1 | inconclusive: 0.708 µM [inhibitor, full curve, poor fit] | 
CCOC(=O)c1ccc(NC(=O)CC2C(=O)N(c3ccc(F)cc3)C(=O)N2CCCOC)cc1 (stereo unspecified) | inconclusive: 20 µM [quencher, side channel, single point] | 
S=C(NNC(=S)Nc1ccccc1)Nc1ccccc1 | inconclusive: 12.6 µM [quencher, side channel, partial curve] | 
Cc1ccc(Nc2nnc(SCC(=O)c3cc4ccccc4o3)s2)cc1C | inconclusive: 15.8 µM [quencher, side channel, partial curve] | 
CCn1nc(C)c(CN2CCC(n3nccc3NC(=O)c3ccccc3OC)CC2)c1C |  | inactive: -13.5%
N=c1oc2cc(O)ccc2cc1C(=O)Nc1ccc(Br)cc1 | inconclusive: 12.6 µM [quencher, side channel, partial curve] | 
CCCCC(CC)C/C=C1\CC(C(=O)OCC)Oc2ccccc21 (stereo unspecified) (tested in a mixture with another compound) |  | inactive: -16.6% [at 94.6 µM]
Cc1[nH]n(-c2ccc([N+](=O)[O-])cc2)c(=O)c1C=NCCN1CCN(C(=O)c2ccc(Br)cc2)CC1 | inconclusive: 15.8 µM [quencher, side channel, partial curve] | 
COC(=O)CSc1nc(N)c(C#N)c(C(C)C)c1C#N | inconclusive: 17.8 µM [quencher, side channel, partial curve] | 
